# Test results: the supplement of paper PMC8728848
# The list shows a part of the results.
# B1: DBA (Dolichos biflorus) (protein)
# chain: ANIQSFSFKNFNSPSFILQGDATVSSGKLQLTKVKENGFPLRFPSGRAFYSSPIQIYDKFTGAVASWATSFTVKISAPSKASFADGIAFALVPVGSEPRRNGGYLGVFDSDVYNNSAQTVAVEFDTLSNSGWDPSMKHIGIDVNSIKSIATVSWDLANGENAEILITYNAATSLLVVSLVHPSRRTSYILSERVDITNELPEYVGVGFSATTGLSEGYIETHDVLSWSFASRLPDDSTAEPLDLARYLVRNVL
# Key:
# Test in all cases: glycan array binding signal (z-score within array); higher = stronger binding
# Conditions in all cases: glycan notation: IUPAC condensed, linker removed
# Neu5Ac(a2-6)GalNAc = target: Neu5Ac(a2-6)GalNAc
# Procedure, shortened: (§1)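 Glycan array data came from 3228 arrays in the Consortium for Functional Glycomics database, and only arrays with an available protein sequence were kept. Glycan names were put into IUPAC-condensed notation, and columns mapping to the same glycan were averaged. The binding signal is a within-array Z-score, averaged across arrays of one protein sequence run at different concentrations or buffers and across linkers. A negative Z-score can be read as non-binding.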
# [1] = target: Neu5Ac(a2-6)GalNAc(b1-4)GlcNAc
# Procedure, shortened: as §1
# [2] = target: Neu5Ac(a2-6)GalNAc(b1-4)GlcNAc6S
# Procedure, shortened: as §1
# [3] = target: Neu5Ac(a2-6)GlcNAc(b1-4)GlcNAc
# Procedure, shortened: as §1
# [4] = target: Neu5Ac(a2-6)GlcNAc(b1-4)GlcNAc(b1-4)GlcNAc
# Procedure, shortened: as §1
# Neu5Ac(a2-8)Neu5Ac = target: Neu5Ac(a2-8)Neu5Ac
# Procedure, shortened: as §1
# [5] = target: Neu5Ac(a2-8)Neu5Ac(a2-3)Gal(b1-3)GalNAc(b1-4)[Neu5Ac(a2-3)]Gal(b1-4)Glc
# Procedure, shortened: as §1
# [6] = target: Neu5Ac(a2-8)Neu5Ac(a2-3)Gal(b1-3)GalNAc(b1-4)[Neu5Ac(a2-8)Neu5Ac(a2-3)]Gal(b1-4)Glc
# Procedure, shortened: as §1
# [7] = target: Neu5Ac(a2-8)Neu5Ac(a2-3)Gal(b1-4)Glc
# Procedure, shortened: as §1
# [8] = target: Neu5Ac(a2-8)Neu5Ac(a2-3)Gal(b1-4)GlcNAc
# Procedure, shortened: as §1
# [9] = target: Neu5Ac(a2-8)Neu5Ac(a2-3)[Gal(b1-3)GalNAc(b1-4)]Gal(b1-4)Glc
# Procedure, shortened: as §1
# [10] = target: Neu5Ac(a2-8)Neu5Ac(a2-3)[GalNAc(b1-4)]Gal(b1-4)Glc
# Procedure, shortened: as §1
# [11] = target: Neu5Ac(a2-8)Neu5Ac(a2-8)Neu5Ac
# Procedure, shortened: as §1
# [12] = target: Neu5Ac(a2-8)Neu5Ac(a2-8)Neu5Ac(a2-3)Gal(b1-4)Glc
# Procedure, shortened: as §1
# [13] = target: Neu5Ac(a2-8)Neu5Ac(a2-8)Neu5Ac(a2-3)[Gal(b1-3)GalNAc(b1-4)]Gal(b1-4)Glc
# Procedure, shortened: as §1
# [14] = target: Neu5Ac(a2-8)Neu5Ac(a2-8)Neu5Ac(a2-3)[GalNAc(b1-4)]Gal(b1-4)Glc
# Procedure, shortened: as §1
# [15] = target: Neu5Ac(a2-8)Neu5Ac(a2-8)Neu5Ac(a2-8)Neu5Ac(a2-3)[GalNAc(b1-4)]Gal(b1-4)Glc
# Procedure, shortened: as §1
# [16] = target: Neu5Ac(a2-8)Neu5Gc(a2-3)Gal(b1-4)GlcNAc
# Procedure, shortened: as §1
# Neu5Ac(b1-6)GalNAc = target: Neu5Ac(b1-6)GalNAc
# Procedure, shortened: as §1
# [17] = target: Neu5Ac(b2-6)Gal(b1-4)GlcNAc
# Procedure, shortened: as §1
# Neu5Ac(b2-6)GalNAc = target: Neu5Ac(b2-6)GalNAc
# Procedure, shortened: as §1
# [18] = target: Neu5Ac9Ac(a2-3)Gal(b1-3)GlcNAc
# Procedure, shortened: as §1
# [19] = target: Neu5Ac9Ac(a2-3)Gal(b1-4)GlcNAc
# Procedure, shortened: as §1
# [20] = target: Neu5Ac9Ac(a2-6)Gal(b1-4)GlcNAc
# Procedure, shortened: as §1
# [21] = target: Neu5Gc(a2-3)Gal(b1-3)GlcNAc
# Procedure, shortened: as §1
# [22] = target: Neu5Gc(a2-3)Gal(b1-3)[Fuc(a1-4)]GlcNAc
# Procedure, shortened: as §1
# Neu5Gc(a2-3)Gal(b1-4)Glc = target: Neu5Gc(a2-3)Gal(b1-4)Glc
# Procedure, shortened: as §1
# [23] = target: Neu5Gc(a2-3)Gal(b1-4)GlcNAc
# Procedure, shortened: as §1
# [24] = target: Neu5Gc(a2-3)Gal(b1-4)GlcNAc(b1-3)Gal(b1-4)GlcNAc(b1-2)Man(a1-3)[Neu5Gc(a2-3)Gal(b1-4)GlcNAc(b1-3)Gal(b1-4)GlcNAc(b1-2)Man(a1-6)]Man(b1-4)GlcNAc(b1-4)GlcNAc
# Procedure, shortened: as §1
# [25] = target: Neu5Gc(a2-3)Gal(b1-4)[Fuc(a1-3)]GlcNAc
# Procedure, shortened: as §1
# [26] = target: Neu5Gc(a2-6)Gal(b1-4)GlcNAc
# Procedure, shortened: as §1
# Neu5Gc(a2-6)GalNAc = target: Neu5Gc(a2-6)GalNAc
# Procedure, shortened: as §1
# [27] = target: Neu5Gc(a2-8)Neu5Ac(a2-3)Gal(b1-4)GlcNAc
# Procedure, shortened: as §1
# [28] = target: Neu5Gc(a2-8)Neu5Gc(a2-3)Gal(b1-4)GlcNAc
# Procedure, shortened: as §1
# [29] = target: Neu5Gc(a2-8)Neu5Gc(a2-3)Gal(b1-4)GlcNAc(b1-3)Gal(b1-4)GlcNAc
# Procedure, shortened: as §1
# [30] = target: Neu5Gc(a2-8)Neu5Gc(a2-6)Gal(b1-4)GlcNAc
# Procedure, shortened: as §1
# [31] = target: Neu5Gc(b2-6)Gal(b1-4)GlcNAc
# Procedure, shortened: as §1
binder,measurement,setting,value
B1,glycan array binding signal (z-score),Neu5Ac(a2-6)GalNAc,-0.135
same,glycan array binding signal (z-score),[1],-0.127
same,glycan array binding signal (z-score),[2],-0.11
same,glycan array binding signal (z-score),[3],-0.174
same,glycan array binding signal (z-score),[4],-0.134
same,glycan array binding signal (z-score),Neu5Ac(a2-8)Neu5Ac,-0.121
same,glycan array binding signal (z-score),[5],-0.082
same,glycan array binding signal (z-score),[6],-0.15
same,glycan array binding signal (z-score),[7],-0.158
same,glycan array binding signal (z-score),[8],-0.097
same,glycan array binding signal (z-score),[9],-0.124
same,glycan array binding signal (z-score),[10],-0.114
same,glycan array binding signal (z-score),[11],-0.143
same,glycan array binding signal (z-score),[12],-0.135
same,glycan array binding signal (z-score),[13],-0.044
same,glycan array binding signal (z-score),[14],-0.125
same,glycan array binding signal (z-score),[15],-0.104
same,glycan array binding signal (z-score),[16],-0.086
same,glycan array binding signal (z-score),Neu5Ac(b1-6)GalNAc,-0.172
same,glycan array binding signal (z-score),[17],-0.134
same,glycan array binding signal (z-score),Neu5Ac(b2-6)GalNAc,-0.143
same,glycan array binding signal (z-score),[18],-0.123
same,glycan array binding signal (z-score),[19],-0.116
same,glycan array binding signal (z-score),[20],-0.124
same,glycan array binding signal (z-score),[21],-0.117
same,glycan array binding signal (z-score),[22],-0.136
same,glycan array binding signal (z-score),Neu5Gc(a2-3)Gal(b1-4)Glc,-0.104
same,glycan array binding signal (z-score),[23],-0.116
same,glycan array binding signal (z-score),[24],-0.067
same,glycan array binding signal (z-score),[25],-0.143
same,glycan array binding signal (z-score),[26],-0.106
same,glycan array binding signal (z-score),Neu5Gc(a2-6)GalNAc,-0.113
same,glycan array binding signal (z-score),[27],-0.154
same,glycan array binding signal (z-score),[28],-0.149
same,glycan array binding signal (z-score),[29],-0.122
same,glycan array binding signal (z-score),[30],-0.16
same,glycan array binding signal (z-score),[31],-0.064
